# Experimental data reported in patent publication US12043670B2, “Anti-BCMA antibody-drug conjugates and methods of use” (Eisai R&D Management Co., Ltd., priority 2020, dated 2024).
# B1: AB200-R1H32-R2Vk19 (antibody)
# heavy: QVQLVQSGAEVKKPGSSVKVSCKASGGTFSNYWMHWVRQAPGQGLEWMGATYRSHSDTYYNQKFKSRVTITADKSTSTAYMELSSLRSEDTAVYYCARGAIYHGYDVIDNWGQGTLVTVSSASTKGPSVFPLAPSSKSTSGGTAALGCLVKDYFPEPVTVSWNSGALTSGVHTFPAVLQSSGLYSLSSVVTVPSSSLGTQTYICNVNHKPSNTKVDKKVEPKSC
# light: DIQMTQSPSSLSASVGDRVTITCRASQSISSYLNWYQQKPGKAPKLLIYATSNLQSGVPSRFSGSGSGTDFTLTISSLQPEDFATYYCQQYRRLPWSFGQGTKLEIKRTVAAPSVFIFPPSDEQLKSGTASVVCLLNNFYPREAKVQWKVDNALQSGNSQESVTEQDSKDSTYSLSSTLTLSKADYEKHKVYACEVTHQGLSSPVTKSFNRGEC
# B2: AB200-R1H32-R2Vk20 (antibody)
# heavy: B1 heavy
# light: B1 light with L94I, S97T
# B3: AB200-R1H32-R2Vk22 (antibody)
# heavy: B1 heavy
# light: B1 light with R93K, L94I
# B4: AB200-R1H32-R2Vk21 (antibody)
# heavy: B1 heavy
# light: B1 light with Y91F, S97T
# B5: AB200-R1a-Fab_VH5 (antibody)
# heavy: B1 heavy with S54G, T58S, Y59N, Q62N, S66G, I108L
# light: B1 light with R24S, S26T, S28D, S31N, A50F, R93K, S97T
# B6: AB200-R1a-Fab_VH8 (antibody)
# heavy: B1 heavy with S66G, K74E, Y102F, I108L
# light: B1 light with R24S, S26T, S28D, S31N, A50F, R93K, S97T
# B7: AB200-R1a-Fab_VH16 (antibody)
# heavy: B1 heavy with N31T, S54I, S66G, K74E, I108L
# light: B1 light with R24S, S26T, S28D, S31N, A50F, R93K, S97T
# B8: AB200-R1a-Fab_VH13 (antibody)
# heavy: B1 heavy with S54G, D57T, N61A, F64Y, S66G, I108L
# light: B1 light with R24S, S26T, S28D, S31N, A50F, R93K, S97T
# B9: AB200-R1a-Fab_VH17 (antibody)
# heavy: B1 heavy with N31S, S54G, N61A, S66G, D106E, I108L
# light: B1 light with R24S, S26T, S28D, S31N, A50F, R93K, S97T
# B10: AB200-R1a-Fab_VH15 (antibody)
# heavy: B1 heavy with F29Y, S54G, T58A, K63R, S66G, I108L
# light: B1 light with R24S, S26T, S28D, S31N, A50F, R93K, S97T
# B11: AB200-R1H26-R2Vk3 (antibody)
# heavy: B1 heavy with T28S, S54I, Y59F, S66G, I108L
# light: B1 light with Y91F, R93K
# B12: AB200-R1H26-R2Vk10 (antibody)
# heavy: B1 heavy with T28S, S54I, Y59F, S66G, I108L
# light: B1 light with T51A, N53S, L94I, S97T
# B13: AB200-R1H26-R2Vk45 (antibody)
# heavy: B1 heavy with T28S, S54I, Y59F, S66G, I108L
# light: B1 light with L33I, S56I, L94I, S97T
# B14: AB200-R1H26-R2Vk21 (antibody)
# heavy: B1 heavy with T28S, S54I, Y59F, S66G, I108L
# light: B1 light with Y91F, S97T
# B15: AB200-R1H26-R2Vk31 (antibody)
# heavy: B1 heavy with T28S, S54I, Y59F, S66G, I108L
# light: B1 light with S56I, Y91F, S97T
# B16: AB200-R1H26-R2Vk13 (antibody)
# heavy: B1 heavy with T28S, S54I, Y59F, S66G, I108L
# light: B1 light with T51A, N53S, Y91F, R93K, L94I, S97T
# B17: AB200-R1H26-R2Vk46 (antibody)
# heavy: B1 heavy with T28S, S54I, Y59F, S66G, I108L
# light: B1 light with L33I, S56I, Y91F, S97T
# B18: AB200-R1H26-R2Vk19 (antibody)
# heavy: B1 heavy with T28S, S54I, Y59F, S66G, I108L
# light: B1 light
# B19: AB200-R1H26-R2Vk34 (antibody)
# heavy: B1 heavy with T28S, S54I, Y59F, S66G, I108L
# light: B1 light with L33I
# B20: AB200-R1H26-R2Vk5 (antibody)
# heavy: B1 heavy with T28S, S54I, Y59F, S66G, I108L
# light: B1 light with S56I, Y91F, R93K
# B21: AB200-R1H26-R2Vk14 (antibody)
# heavy: B1 heavy with T28S, S54I, Y59F, S66G, I108L
# light: B1 light with L33I, T51A, N53S
# B22: AB200-R1H26-R2Vk25 (antibody)
# heavy: B1 heavy with T28S, S54I, Y59F, S66G, I108L
# light: B1 light with L54I, L94I, S97T
# B23: AB200-R1H26-R2Vk24 (antibody)
# heavy: B1 heavy with T28S, S54I, Y59F, S66G, I108L
# light: B1 light with L54I
# B24: AB200-R1H26-R2Vk11 (antibody)
# heavy: B1 heavy with T28S, S54I, Y59F, S66G, I108L
# light: B1 light with T51A, N53S, Y91F, S97T
# B25: AB200-R1H26-R2Vk29 (antibody)
# heavy: B1 heavy with T28S, S54I, Y59F, S66G, I108L
# light: B1 light with S56I
# B26: AB200-R1H26-R2Vk44 (antibody)
# heavy: B1 heavy with T28S, S54I, Y59F, S66G, I108L
# light: B1 light with L33I, S56I
# B27: AB200-R1H26-R2Vk23 (antibody)
# heavy: B1 heavy with T28S, S54I, Y59F, S66G, I108L
# light: B1 light with Y91F, R93K, L94I, S97T
# B28: AB200-R1H26-R2Vk30 (antibody)
# heavy: B1 heavy with T28S, S54I, Y59F, S66G, I108L
# light: B1 light with S56I, L94I, S97T
# B29: AB200-R1H26-R2Vk15 (antibody)
# heavy: B1 heavy with T28S, S54I, Y59F, S66G, I108L
# light: B1 light with L33I, T51A, N53S, L94I, S97T
# B30: AB200-R1H26-R2Vk22 (antibody)
# heavy: B1 heavy with T28S, S54I, Y59F, S66G, I108L
# light: B1 light with R93K, L94I
# B31: AB200-R1H26-R2Vk16 (antibody)
# heavy: B1 heavy with T28S, S54I, Y59F, S66G, I108L
# light: B1 light with L33I, T51A, N53S, Y91F, S97T
# B32: AB200-R1H26-R2Vk12 (antibody)
# heavy: B1 heavy with T28S, S54I, Y59F, S66G, I108L
# light: B1 light with T51A, N53S, R93K, L94I
# B33: AB200-R1H26-R2Vk33 (antibody)
# heavy: B1 heavy with T28S, S54I, Y59F, S66G, I108L
# light: B1 light with S56I, Y91F, R93K, L94I, S97T
# B34: AB200-R1H26-R2Vk20 (antibody)
# heavy: B1 heavy with T28S, S54I, Y59F, S66G, I108L
# light: B1 light with L94I, S97T
# B35: AB200-R1H26-R2Vk32 (antibody)
# heavy: B1 heavy with T28S, S54I, Y59F, S66G, I108L
# light: B1 light with S56I, R93K, L94I
# B36: AB200-R1H26-R2Vk26 (antibody)
# heavy: B1 heavy with T28S, S54I, Y59F, S66G, I108L
# light: B1 light with L54I, Y91F, S97T
# B37: AB200-R1H26-R2Vk35 (antibody)
# heavy: B1 heavy with T28S, S54I, Y59F, S66G, I108L
# light: B1 light with L33I, L94I, S97T
# B38: AB200-R1H26-R2Vk1 (antibody)
# heavy: B1 heavy with T28S, S54I, Y59F, S66G, I108L
# light: B1 light with T51A, N53S, Y91F, R93K
# B39: AB200-R1H26-R2Vk9 (antibody)
# heavy: B1 heavy with T28S, S54I, Y59F, S66G, I108L
# light: B1 light with T51A, N53S
# B40: AB200-R1H26-R2Vk36 (antibody)
# heavy: B1 heavy with T28S, S54I, Y59F, S66G, I108L
# light: B1 light with L33I, Y91F, S97T
# Experiment: ThermoFluor thermostability (Tm)
# Format: physicochemical
# Details: Fab fragment; light chain clone paired with heavy chain AB200_R1_VH32
row,Molecule,Tm [°C]
1,B1,77.794
2,B2,78.369
3,B3,77.373
4,B4,81.462

# Same assay, conditions: Heavy chain screening Round 1; Fab, paired with light chain AB200_VK6
row,Molecule,Tm [°C]
1,B5,78.702
2,B6,81.348
3,B7,80.661
4,B8,79.465
5,B9,80.449
6,B10,79.976

# Same assay, conditions: Light chain screening Round 2; Fab, paired with heavy chain AB200_R1_VH26
row,Molecule,Tm [°C]
1,B11,82.928
2,B12,80.527
3,B13,80.255
4,B14,84.095
5,B15,83.337
6,B16,83.187
7,B17,83.993
8,B18,79.896
9,B19,79.150
10,B20,82.925
11,B21,79.433
12,B22,80.300
13,B23,79.357
14,B24,82.940
15,B25,80.138
16,B26,79.402
17,B27,83.321
18,B28,81.085
19,B29,80.321
20,B30,79.661
21,B31,83.455
22,B32,79.775
23,B33,83.936
24,B34,81.004
25,B35,80.094
26,B36,83.451
27,B37,79.657
28,B38,82.409
29,B39,79.850
30,B40,84.360

# Substitutions are numbered along the chain they refer to.
